# Test results as given in paper PMC4336329 (PLoS ONE, 2015).
# The campaign covered roughly 310,000 compounds. About 14,000 (4.5%) showed an effect of 50% or more. Effects have a minus sign here. Some of the results follow.
# Target: human ether-à-go-go-related gene (hERG) potassium channel (human, UniProt Q12809)
# Assay: primary screen, population patch clamp on CHO cells stably expressing hERG
# 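Note: peak tail current of the secondary pulse compared with the same well before compound.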
# human ether-à-go-go-related gene (hERG) potassium channel, sequence (Q12809 whole entry, looked up): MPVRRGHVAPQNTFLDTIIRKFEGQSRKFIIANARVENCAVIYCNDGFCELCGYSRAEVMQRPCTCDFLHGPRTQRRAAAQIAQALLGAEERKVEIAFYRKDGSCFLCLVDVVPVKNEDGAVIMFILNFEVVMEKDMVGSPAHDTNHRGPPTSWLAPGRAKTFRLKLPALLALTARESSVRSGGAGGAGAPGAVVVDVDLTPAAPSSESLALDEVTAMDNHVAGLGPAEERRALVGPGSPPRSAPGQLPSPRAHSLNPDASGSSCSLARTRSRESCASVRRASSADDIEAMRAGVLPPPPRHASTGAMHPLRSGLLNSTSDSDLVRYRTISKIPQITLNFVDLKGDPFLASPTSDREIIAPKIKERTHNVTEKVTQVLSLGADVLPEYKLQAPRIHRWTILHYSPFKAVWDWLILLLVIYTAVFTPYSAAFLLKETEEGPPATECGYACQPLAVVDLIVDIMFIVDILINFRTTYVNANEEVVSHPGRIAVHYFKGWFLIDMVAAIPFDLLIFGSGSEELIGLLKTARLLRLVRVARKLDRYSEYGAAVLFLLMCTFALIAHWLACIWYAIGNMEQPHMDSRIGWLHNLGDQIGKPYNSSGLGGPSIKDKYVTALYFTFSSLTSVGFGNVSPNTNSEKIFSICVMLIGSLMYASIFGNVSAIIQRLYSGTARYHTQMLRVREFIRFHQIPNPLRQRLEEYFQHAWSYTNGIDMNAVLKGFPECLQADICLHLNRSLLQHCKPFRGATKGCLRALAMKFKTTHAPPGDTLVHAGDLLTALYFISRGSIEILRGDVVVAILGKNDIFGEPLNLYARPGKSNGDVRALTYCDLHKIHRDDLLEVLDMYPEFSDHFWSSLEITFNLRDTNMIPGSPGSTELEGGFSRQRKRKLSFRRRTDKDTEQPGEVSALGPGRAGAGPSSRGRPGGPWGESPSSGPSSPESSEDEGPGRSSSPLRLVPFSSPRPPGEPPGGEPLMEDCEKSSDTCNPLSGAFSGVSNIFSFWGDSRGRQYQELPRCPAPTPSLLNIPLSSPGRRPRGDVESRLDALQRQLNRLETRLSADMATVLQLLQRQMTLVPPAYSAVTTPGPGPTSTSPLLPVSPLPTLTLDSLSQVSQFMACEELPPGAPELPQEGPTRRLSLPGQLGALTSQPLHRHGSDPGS
row,Structure (SMILES),"hERG current change (%, negative = inhibition) at 10uM"
1,CC1CCC(NS(=O)(=O)c2ccc3c(c2)n(C)c(=O)c(=O)n3C)CC1 (centres unmarked),-34.6%
2,O=C(O)CSc1ncccn1,2.16%
3,O=C(NCc1ccncc1)C(=O)Nc1ccc2c(c1)OCO2,12.8%
4,CCOC(=O)n1c(=O)n(Cc2ccccc2)c2ccccc21,-9.45%
5,COc1ccccc1NC(=O)/C(C#N)=C/c1c(C)nn(-c2ccc(F)cc2)c1Cl,-7.24%
6,O=C(c1cc(-c2ccccc2)on1)N1CCN(C(=O)c2ccco2)CC1,-40.9%
7,COc1ccc(C)cc1Nc1nc(-c2ccccc2O)nc2ccccc12,18.1%
8,CC1=C(C(N)=O)C(c2ccccn2)n2nc(SCc3ccccc3Cl)nc2N1 (centres unmarked),-0.969%
9,CN(C)c1nc(Oc2ccc(C(=O)OCC(=O)Nc3ccccc3)cc2)nc(N(C)C)n1,-2.65%
10,COc1ccc(CCNC(=O)CSc2nnc(CNC(=O)c3cc(OC)c(OC)c(OC)c3)o2)cc1OC,11.7%
11,N#CC1=C(N2CCCCC2)c2cc3c(n2C1=O)CCCC3,-2.08%
12,Cc1ccc(NC(=O)C2CCCN(S(=O)(=O)c3ccc4[nH]c(=O)ccc4c3)C2)cc1C (centres unmarked),-12.2%
13,O=CN1CCN(C(=O)COc2ccc(Cl)cc2Br)CC1,-20.3%
14,COc1cccc(Nc2cc(C)nc3ccccc23)c1,-73.1%
15,O=C(Nc1ccccc1)C1=C[C@H](c2ccccc2)C[C@H](OCCCCO)O1,-17.4%
16,NC(=S)NNC(=O)c1cc(C(F)(F)F)cc(C(F)(F)F)c1,15.7%
17,COc1ccc(CCNC(=O)CSc2nc(-c3ccc(OC)c(OC)c3)ccc2C#N)cc1,-20.5%
18,COc1ccc(C(=O)Nc2cc(C(=O)NCCc3ccccc3)ccc2Cl)cc1,-5.52%
19,CSc1nsc(SCC(=O)Nc2nc3ccc(C)cc3s2)n1,25.8%

row,Structure (SMILES),"hERG current change (%, negative = inhibition) at 10uM"
1,C=C(C(=O)O)C(CCCCCC)C(=O)O (centres unmarked),2.31%
2,C/C(=N\NC(=O)c1cccc(C)c1)c1ccc(N2CCOCC2)cc1,-4.66%
3,Cc1ccc(S(=O)(=O)Nc2ccc3cn[nH]c3c2)c(C)c1,-18.1%
4,CCN(CC)CCN(C(=O)CCS(=O)(=O)c1ccccc1)c1nc2cc(C)cc(C)c2s1.Cl,9.19%
5,O=C(CCN1CCCCC1)N/N=C/c1ccc(Br)cc1,-77.8%
6,O=C(Nc1ccccc1N1CCN(c2ccc(F)cc2)CC1)c1ccccc1,-17.8%
7,O=C(COC(=O)CCc1nc2ccccc2c(=O)[nH]1)NCc1ccc(F)cc1,11.6%
8,Cn1c(SCC(=O)NCCN2C(=O)CSC2=O)nc2ccccc2c1=O,-2.05%
9,O=C(NN=C1CCCCCC1)c1ccc(Br)o1,5.46%
10,COc1ccc(C2C(C(=O)OC3CCCCC3)=C(C)Nc3nnnn32)c(OC)c1OC (centres unmarked),-8.23%
11,CCn1c(CSc2nc3ccccc3s2)nnc1SCC(=O)c1ccc(O)c(O)c1,17.8%
12,COc1cccc(C(=O)NC2CCN(CC(=O)Nc3ccccc3Cl)CC2)c1,-55.4%
13,COc1ccccc1C(=O)N/N=C/c1ccc(Cl)s1,-16.1%
14,CC(O)(CS(=O)(=O)c1cccc(C(F)(F)F)c1)C(=O)Nc1cccc(C(F)(F)F)c1 (centres unmarked),-14.5%
15,O=C(CN(CC1CCCO1)S(=O)(=O)c1ccc(S(=O)(=O)NCC2CCCO2)cc1)Nc1ccccc1 (centres unmarked),-14.2%
16,COC(=O)C1=C[C@@H](C(=O)OC)[C@@H]2C3=C(C(=O)[C@@]2(C)NC(=O)c2ccccc2)[C@H](c2ccccc2)[C@@H]2C(=O)NC(=O)[C@@H]2[C@@H]3C1,7.14%
17,Cc1ccc(NC(=O)CCc2nc(-c3cccs3)no2)c(Br)c1,5.09%
18,O=C(C[n+]1cc(Br)cc(Br)c1)c1ccc(-c2ccccc2)cc1.[Br-],-28.4%
19,COc1ccc(CN2CCN(c3cc(C)nc4c5c(C)cc(C)nc5nn34)CC2)cc1F,-16.8%

row,Structure (SMILES),"hERG current change (%, negative = inhibition) at 10uM"
1,N#Cc1cccc(NCC(=O)Nc2ccc3c(c2)OCCO3)c1,1.94%
2,CCc1cc2c(=O)c(-n3cnc4ccccc43)coc2cc1O,-17.3%
3,O=C(CCC(=O)N1CCN(c2ccccc2F)CC1)N1CCN(c2ccc(F)cc2)CC1,-46.9%
4,COCCCNC(=S)NNC(=S)Nc1ccc(F)cc1F,19.2%
5,CCn1cc(CCC(=O)O)c(C)n1,-1.38%
6,CN(Cc1ccccc1)C(=O)c1ccccc1NC(=O)c1ccco1,20%
7,Cc1cc(=O)oc2cc(OCC3CC(c4ccccc4Cl)=NO3)ccc12 (centres unmarked),-12.4%
8,C/C(=N\Nc1ccc(Cl)cc1)c1ccncc1.Cl,-5.05%
9,O=C(c1ccc(Br)o1)N(c1ccc(Br)cc1)C1C=CS(=O)(=O)C1 (centres unmarked),-40.5%
10,Cn1c(=NC(=O)c2ccco2)sc2ccccc21,11.6%
11,CCCCN(Cc1ccco1)C(=O)Cn1ncc2c(=O)oc3ccc(C)cc3c21,13.2%
12,CCOc1ccc(OCCn2c(=S)[nH]c3ccccc32)cc1,22.9%
13,COc1cc(S(=O)(=O)N(C)C)ccc1F,36.3%
14,C=C(C)CSc1nc2ccccc2[nH]1,9.1%
15,CCOC(=O)C1(CCc2ccccc2)CCN(C(=O)CN2CCOC2=O)CC1,14.6%
16,COc1ccc(C)cc1N(C)C(=O)c1coc(=O)c2ccccc12,12.9%
17,O=C(O)c1ccccc1C(=O)c1ccc(N2CCCC2)c([N+](=O)[O-])c1,13.8%
18,Cc1cc2c(cc1C)C(c1ccsc1)CC(=O)N2 (centres unmarked),-11.5%
